According to PubChem BioAssay AID1963576 (National Center for Advancing Translational Sciences (NCATS), 2024):
Screen size: about 46,000 compounds; about 60 (0.1%) were called active. Not shown: some 3% with an inconclusive outcome. Calls come from the whole dose curve; as a rule, active = well fitted inhibition curve with a large enough effect; inconclusive = small, poorly fitted or top-dose-only effect; inactive = no such curve, though single readings can be large or run the other way. The list shows a part of the results.

Assay: Primary qHTS assay for Inhibitors of ovarian cancer metastasis using an organotypic tumor microenvironment (TME) model.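 For activity change, negative = inhibition: plate controls were DMSO wells for no effect and tomatine positive control wells for full effect.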 Note: nearly all actives have a fitted effect of over 65% in size.
Conditions: SKOV3ip1-GFP adhesion/invasion on 3D omental model, fluorescence; series mostly up to 45.8 µM; activity change, negative = inhibition: at the top concentration
Outline: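 A 3D layer of primary human omental fibroblasts, mesothelial cells, fibronectin and collagen I, grown 48 hr, received SKOV3ip1-GFP cells in serum-free medium plus compounds at 0.36-46 umol/L. After 2 hr RT and 16 hr 37 C, fixed adherent GFP cells were counted; normalized to DMSO and tomatine.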

outcome, inactive:
CC(=O)c1ccc(NC(=O)c2cc3c(=O)oc4ccc(C)cc4c3s2)cc1
O=C(Nc1nc2c(F)cccc2s1)c1ccc2c(c1)OCCO2
Cc1cccc(N2C(=O)C(CC(=O)Nc3cccc(F)c3)N(CCc3ccncc3)C2=O)c1 (configuration not stated)
O=C(COc1ccc(F)cc1)Nc1ccc2nc(SCCOc3ccccc3)sc2c1
COc1cc(-c2cc3n(C)c(C)c(CCC(=O)NC4CCCCC4)c(=O)n3n2)cc(OC)c1OC
CCOC(=O)c1cc(-c2ccc(C)cc2)n(CCC(=O)NCCc2ccc(C)cc2)c1C
CCN(CC)CCNC(=O)c1cn(CC)c2ccc(S(=O)(=O)N3CCc4ccccc4C3)cc2c1=O
COCCn1c(=N)c(C(=O)NC2CCCC2)cc2c(=O)n3cc(C)ccc3nc21
O=C(Nc1cccc(OCc2cc(=O)n3ccccc3n2)c1)Nc1cccc(C(F)(F)F)c1
CCOc1ccccc1CNC(=O)c1oc2c(c1C)-c1nn(Cc3cccc(Cl)c3)cc1CC2
CCOc1ccc(NC(=O)CCNS(=O)(=O)c2cccs2)cc1
COc1ccc(NC(=O)CCCN2C(=O)CCn3nc(-c4cn(C)c5ccccc45)cc32)cc1
Cc1ccc(C)c(S(=O)(=O)n2nc(C)c(S(=O)(=O)N3CCCCCC3)c2C)c1
CCN(Cc1ccccc1)S(=O)(=O)c1ccc(F)c(C(=O)Nc2cc(C)ccc2OC)c1
Cc1nc2ccc(S(=O)(=O)N(CC(=O)Nc3ccc(F)cc3)Cc3ccccc3)cc2s1
COc1ccc(CCNc2ncnc3c2nnn3C)cc1
COc1ccc(N(C(=O)c2ccc(C(C)(C)C)cc2)S(=O)(=O)c2ccc(Cl)cc2)cc1
O=C(NCCCN1CCN(c2cccc(Cl)c2)CC1)c1cnn(-c2ccc(F)cc2)c1-n1cccc1
COc1ccc(C2c3c(n(C)c4ccccc34)C(=O)N2CC(=O)Nc2cccc(Cl)c2C)cc1 (configuration not stated)

Activity change, negative = inhibition, inactive:
Cc1ccc(CNC(=O)c2ccc3c(c2)NC(=O)C(CS(=O)(=O)Cc2cccc(F)c2)N3)cc1 (configuration not stated) -8.08%
Cc1ccc(N2C(=O)C(CC(=O)Nc3ccc(F)cc3)N(Cc3ccc4c(c3)OCO4)C2=O)cc1 (configuration not stated) -9.51%
CCc1nn(CC(=O)NCCCc2ccccc2)c(=O)c2cc3cc(F)ccc3n12 30.6%
CCOC(=O)CCNC(=O)N1CCN(S(=O)(=O)c2ccc3c(ccn3C)c2)CC1 -9.75%
Cc1ccc(Sc2ccc(N3CCC(C(=O)Nc4ccc(Cl)cc4)CC3)nn2)cc1 10.5%
COc1ccc(NC(=O)C2=CC(c3ccc4c(c3)OCO4)=NS(=O)(=O)N2C)cc1OC -3.12%
O=S(=O)(c1ccc(Cl)cc1)c1nc(-c2ccccc2F)oc1NCc1ccccc1 8.91%
Cc1ccc(C(=O)Nc2ccc(S(=O)(=O)N(Cc3ccccc3)c3ccccc3)cc2)cc1 -6.93%
O=C(CSCn1nnc2c(=O)[nH]c(Cc3ccc(F)cc3)nc21)Nc1ccccc1 3.56%
CCCCNC(=O)C1CCC(Cn2c(=O)c3sccc3n(CC(=O)Nc3ccccc3)c2=O)CC1 (configuration not stated) -1.27%
N#Cc1ccc(NC(=O)C2Cc3ccccc3CN2S(=O)(=O)c2ccc(F)cc2)cc1 (configuration not stated) 7.08%
Cc1cc(F)ccc1S(=O)(=O)Nc1cc2c(C(=O)O)c(C)oc2c2ccccc12 -0.732%
C[C@H](CCC(=O)O)[C@H]1CC[C@H]2[C@@H]3[C@H](O)C[C@@H]4C[C@H](O)CC[C@]4(C)[C@@H]3CC[C@]12C 3.24%
Cc1cc(N2CCN(c3cc(Cl)ccc3C)CC2)n2nc(-c3ccccc3)nc2n1 -19.7%
COc1ccc(OC)c(CC2C(=O)Nc3ccc(Br)cc32)c1 (configuration not stated) -5.71%
CCOC(=O)c1c(C)oc2ccc(N(C(C)=O)S(=O)(=O)c3c(C)cc(C)cc3C)cc12 -5.09%
COC(=O)c1cc2sccc2n1Cc1ccc(F)cc1Cl -12.6%
O=C(NC1CCN(Cc2ccccc2)CC1)c1ccc(Cn2c(=O)c3ccccc3n(Cc3cccc(F)c3)c2=O)cc1 -12.9%
COc1ccc(Oc2nc3c(c(=O)n(C)c(=O)n3C)n2Cc2ccc(Cl)cc2Cl)cc1 -6.47%
Cc1cccc(C)c1NC(=O)CCC(=O)N1Cc2ccccc2Oc2ncccc21 0.734%
CCC(=O)N1CCc2cc(Br)cc(S(=O)(=O)CCC(=O)Nc3ccc(Cl)cc3)c21 -2.93%
CCC(=O)N1CCc2cc(Br)cc(S(=O)(=O)N3CCN(c4cc(C)ccc4C)CC3)c21 -0.923%
O=C(Nc1ccccc1C(=O)OCc1cc(=O)n2ccsc2n1)c1ccccc1Cl 13.5%
Cc1ccc(NC(=O)C2CCCN2S(=O)(=O)c2cccc3cccnc23)c(C)c1 (configuration not stated) 0.638%
Cc1ccc2c(=O)c(C(=O)c3ccc(Cl)cc3)cn(CC(=O)Nc3ccc4c(c3)OCCO4)c2n1 18.9%
Cc1cccc(C(=O)NCc2nc3ccccc3n2Cc2ccccc2Cl)c1 2.11%
O=C(Cc1ccc(NC(=O)N2CCSc3ncccc32)cc1)NCc1cccc(Cl)c1 -3.52%
CCOc1ccc(CNC(=O)C2=Cc3cccc(OC)c3OC2)cc1 1.11%
COc1ccc(CCNC(=O)C2c3ccccc3C(=O)N2Cc2ccccc2)cc1OC (configuration not stated) 1.85%
CCOC(=O)c1c(C)n(-c2ccccc2)c2ccc(OC(=O)c3c(F)cccc3F)cc12 21.6%
CCOc1ccc(Cn2c(CNS(=O)(=O)c3ccc(C(C)(C)C)cc3)nc3cccnc32)cc1 2.22%
COc1ccc(Cl)cc1C(=O)NCCS(=O)(=O)N1CCN(c2ccccc2OC)CC1 19.1%
COc1cccc(NC(=O)Cn2c(=O)n(Cc3ccc(C(=O)NCc4ccc(C)cc4)cc3)c(=O)c3ccccc32)c1 -9.34%
COc1ccc2c(C)c(CCC(=O)NCc3ccccc3Cl)c(=O)oc2c1C -5.23%
COc1c(C)cc(NS(=O)(=O)c2ccc3c(c2)OCCO3)cc1C 3.03%
Cc1ccc(-c2nn(CCC(N)=O)c(=O)c3ccccc23)cc1 5.39%
O=C(CN1C(=O)C2(SCC(=O)N2c2ccc(F)c(F)c2)c2ccccc21)Nc1cccc(Cl)c1 (configuration not stated) -2.27%
Cc1ccccc1OCC(=O)Nc1ccc2nc(SCC(=O)N3CCOCC3)sc2c1 17.9%
Cc1cc(Nc2ccccc2O)nc(C)n1 5.84%
COc1ccc(CNC(=O)C2CCN(C(=O)N3CCOc4ccc(Cl)cc43)CC2)cc1 4.39%
CCOC(=O)c1cnc2ccc(OC)cc2c1Nc1cccc(C(C)=O)c1 1.57%
CCOc1ccc(C(=O)NCc2nc(-c3ccc(Cl)cc3)no2)cc1OCC -8.67%
Cc1cccc(C)c1-n1ncc(C(=O)NCCN2CCN(C)CC2)c1C1CCN(C(=O)OC(C)(C)C)CC1 -7.07%
Cc1cccc(NC(=O)C2CCN(S(=O)(=O)c3c(C)noc3/C=C/c3ccco3)CC2)c1 5.82%
COC(=O)c1sc2cccc(F)c2c1S(=O)(=O)N1CCN(c2cccc(C)c2)C(C)C1 (configuration not stated) 0.658%
CCc1cccc(NC(=O)CN(C)S(=O)(=O)c2ccc3[nH]c4c(c3c2)CCCC4)c1 2.76%
CCc1ccccc1-n1c(N)c(C(=O)OC)c2nc3ccccc3nc21 -2.15%
CCOC(=O)c1cnc2c(Cl)cc(Cl)cc2c1Nc1ccccc1OC 1.43%
Cc1ccc(-c2nnc3c4ccccc4c(C)nn23)cc1NC(=O)c1ccccc1 1.71%
COC(=O)c1ccc(Cn2nnc3c(=O)[nH]c(C4CCCN(S(=O)(=O)c5ccccc5Cl)C4)nc32)cc1 (configuration not stated) -8.58%
CCCOC(=O)c1c(NC(=O)c2cc3ccccc3c(=O)o2)sc2c1CCC(C)C2 (configuration not stated) 5.68%
CC(C)(C)OC(=O)N1CCC(c2c(C(=O)N3CCN(C(=O)c4ccco4)CC3)cnn2-c2ccc(F)cc2F)CC1 -5.3%
COc1cc(NC(=O)c2nnn(CC(=O)Nc3cc(C)ccc3C)c2N)cc(OC)c1 -6.74%
COC(=O)c1ccc(NC(=O)CC2C(=O)N(c3cccc(OC)c3)C(=O)N2C(C)C)cc1 (configuration not stated) -6.11%
COc1cc(NC(=O)c2cc(-c3cccc(OC)c3)n[nH]2)cc(OC)c1 -9.1%
CCOC(=O)CCc1c(C)nc2cc(-c3cc(OC)cc(OC)c3)[nH]n2c1=O -4.92%
O=C(Nc1ccc(OC(F)(F)F)cc1)c1noc2c1CCCC2 0.927%
CCOc1ccc(-n2c(SCC(=O)Nc3ccc(CC)cc3)nc3c(oc4ccccc43)c2=O)cc1 -0.627%
CCOc1cc(C(=O)Nc2ccc3c(c2)n(C)c(=O)c(=O)n3C)cc(OCC)c1OCC 1.56%
Cc1ccc(N2CC(NC(=O)c3cccc(Cl)c3)CC2=O)cc1C (configuration not stated) -2.97%
COc1ccc(CNC(=O)c2cnn3c(C)c(Cc4c(F)cccc4Cl)c(C)nc23)cc1 9.49%
CCN1C(=O)c2ccccc2Sc2ccc(NC(=O)Nc3cccc([N+](=O)[O-])c3C)cc21 10.2%
CCC1=C(c2ccc(C)cc2)S(=O)(=O)N=C1N1CCC(C(=O)NCc2ccc(N(C)C)cc2)CC1 4.88%
O=C(NCCc1csc2nc(-c3ccccc3F)nn12)C(=O)Nc1cc(F)ccc1F -0.89%
CCOC(=O)c1c(C)oc2ncnc(Nc3cc(C)cc(C)c3)c12 3.4%
CCCCOc1ccc(C(=O)NCc2nnnn2-c2ccc(C)c(C)c2)cc1 4.37%
COC(=O)c1c(NC(=O)/C(C#N)=C/c2ccccc2)sc2c1C(C(=O)OC)CC2 (configuration not stated) 2.55%
CCc1ccccc1Nc1sc(C(=O)c2cccc(OC)c2)c(N)c1S(=O)(=O)c1ccccc1 -5.76%
CC1CCCN(C(=O)Cn2ncc3c([nH]c4ccccc43)c2=O)C1 (configuration not stated) 5.17%
Cc1cccc(N2CCN(C(=O)c3cnc(N4CCCC4)nc3C)CC2)c1C -3.5%
Cc1ccccc1OCC(=O)N1CCC(c2nc3ccccc3s2)CC1 -6.96%
COc1ccc(OCc2ccc(-c3nc(C#N)c(N4CCCCC4)o3)o2)cc1 -6.52%
CCOC(=O)N1CCc2c(sc3c2c(=O)n(-c2ccc(CC)cc2)c(=O)n3C)C1 -16.7%
